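Abbreviation: GI50, concentration required for 50% inhibition of growth.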 For part of its entries the source gives two or more results. Only these are listed. An entry can have further records. Values given together are repeated measurements (runs, samples, wells, individuals or studies). What stands in brackets tells the records apart. Letters hold for one entry only.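 Definition used: TGI = concentration required for complete inhibition of growth.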
Experiments:
Test in all cases: inhibition of tumour cell growth, NCI panel, 384-well format
DU-145 prostate = tested on: DU-145 prostate
RXF 393 renal = tested on: RXF 393 renal
UACC-257 melanoma = tested on: UACC-257 melanoma
HOP-62 NSCLC = tested on: HOP-62 NSCLC
MCF7 breast = tested on: MCF7 breast
LOX IMVI melanoma = tested on: LOX IMVI melanoma
MDA-MB-468 breast = tested on: MDA-MB-468 breast
A549 NSCLC = tested on: A549 NSCLC
A498 renal = tested on: A498 renal
SK-OV-3 ovarian = tested on: SK-OV-3 ovarian
HT29 colon = tested on: HT29 colon
NCI-H522 lung = tested on: NCI-H522 lung
U251 glioblastoma = tested on: U251 glioblastoma
UO-31 renal = tested on: UO-31 renal
OVCAR-5 ovarian = tested on: OVCAR-5 ovarian
KM12 colon = tested on: KM12 colon
NCI-H460 NSCLC = tested on: NCI-H460 NSCLC
TK-10 renal = tested on: TK-10 renal

`CCc1nc(C(N)=O)c(Nc2ccc(N3CCC(N4CCN(C)CC4)CC3)c(OC)c2)nc1NC1CCOCC1` was tested, and the TGI (DU-145 prostate) was > 100 µM [sample A, 1 test] and 6.02 µM [sample B, 1 test], the TGI (RXF 393 renal) was 7.59 µM [sample A, mean of 2 tests] and 745 nM [sample B, 1 test] and the GI50 (UACC-257 melanoma) was 3.59 µM [sample A, mean of 2 tests] and 257 nM [sample B, 1 test]. For the same compound, the TGI (UACC-257 melanoma) was > 20.6 µM [sample A, mean of 2 tests] and 1.31 µM [sample B, 1 test], the TGI (HOP-62 NSCLC) was > 100 µM [sample A, mean of 2 tests] and 7.84 µM [sample B, 1 test] and the TGI (MCF7 breast) was > 100 µM [sample A, mean of 2 tests] and 8.78 µM [sample B, 1 test]. For the same compound, the TGI (LOX IMVI melanoma) was 11.7 µM [sample A, mean of 2 tests] and 892 nM [sample B, 1 test], the TGI (MDA-MB-468 breast) was > 100 µM [sample A, mean of 2 tests] and 9.64 µM [sample B, 1 test] and the TGI (A549 NSCLC) was > 24.6 µM [sample A, mean of 2 tests] and 1.57 µM [sample B, 1 test]. For the same compound, the TGI (A498 renal) was > 65.2 µM [sample A, mean of 2 tests] and 3.75 µM [sample B, 1 test], the TGI (SK-OV-3 ovarian) was > 100 µM [sample A, mean of 2 tests] and 532 nM [sample B, 1 test] and the TGI (HT29 colon) was 6.39 µM [sample A, 1 test] and 570 nM [sample B, 1 test]. For the same compound, the GI50 (NCI-H522 lung) was 4.98 µM [sample A, mean of 2 tests] and 181 nM [sample B, 1 test], the TGI (NCI-H522 lung) was > 26.8 µM [sample A, mean of 2 tests] and 2.37 µM [sample B, 1 test] and the TGI (U251 glioblastoma) was > 100 µM [sample A, mean of 2 tests] and 3.94 µM [sample B, 1 test]. For the same compound, the TGI (UO-31 renal) was > 100 µM [sample A, 1 test] and 820 nM [sample B, 1 test], the TGI (OVCAR-5 ovarian) was > 27.2 µM [sample A, mean of 2 tests] and 875 nM [sample B, 1 test] and the TGI (KM12 colon) was > 100 µM [sample A, mean of 2 tests] and 218 nM [sample B, 1 test]. The TGI (NCI-H460 NSCLC) was > 100 µM [sample A, mean of 2 tests] and 1.64 µM [sample B, 1 test] and the TGI (TK-10 renal) was > 100 µM [sample A, mean of 2 tests] and 7.05 µM [sample B, 1 test].

Reference: PubChem BioAssay (NCI)
